Measured values as given in PubChem BioAssay (NCATS).
Where “and” joins values, the source holds several entries; their conditions need not be identical. Equal values may be shown once. The list shows a part of the results. Shown are side measurements of this screen, not its main read-out; they come without a call. Compounds called inactive in the main read-out are mostly missing here. Potencies come from curve fits of mixed quality, noted in brackets. Bridge positions count the residues as written; N and C are the ends. Square brackets hold non-standard residues; d marks the D form. Side chains are listed from the residue outwards. Peptide text beside a SMILES is read from it. * marks the point of attachment. ξ: configuration not given here. ξDab(CH2SO3H) = NC(CCNCS(=O)(=O)O)C(=O)O; Heptanoyl(6-Me) = CC(C)CCCCC(=O)*; X1 = CCC(C)C(N)C1=NC(C(=O)*)CS1; Orn = NCCC[CH](N)C(=O)O; Dab = NCC[CH](N)C(=O)O

Experiment: qHTS Assay for Lipid Storage Modulators (AID 1519)
Conditions: Drosophila S3 cells, BODIPY lipid droplet/cell ratio, laser cytometry, cells loaded with oleic acid
Summary of the method: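 Cells seeded at 5,000 per well were treated with compounds over a concentration series and loaded with oleic acid (400 uM, as added). Lipid droplet fluorescence (488 nm excitation, 500-530 nm channel) was read by laser-scanning cytometry and normalized to 20 uM Triacsin C.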

[1] = measured here: cell count channel max response
[2] = measured here: cell number channel AC50
[3] = measured here: lipid (BODIPY) channel AC50
[4] = measured here: lipid channel max response
Tags give direction and shape of the fitted curve.

Compound	max response [1]	AC50 [2]	AC50 [3]	max response [4]
OC[C@H]1O[C@H](n2cnc3c(NC4CCCC4)nc(Cl)nc32)[C@@H](O)[C@@H]1O	33.2%	17.8 µM [rising, partial curve, poor fit]	15.8 µM [rising, partial curve, poor fit]	45.7%
COc1ccc(-c2nc3cnc(OC)nc3n(CCc3ccccc3)c2=O)cc1	21.4%	0.0631 µM [rising, full curve, poor fit]	0.0631 µM [rising, full curve]	24.6%
C[C@@H](CCCCC(=O)Nc1ccc(C(F)(F)F)cc1)NCCc1cnc[nH]1	81.6%	31.6 µM [rising, partial curve]	31.6 µM [rising, partial curve]	102%
NC1(C(=O)O)CCCCC1	-11.6%	1.12 µM [falling, full curve, poor fit]	2.82 µM [falling, full curve, poor fit]	-8.64%
c1ccc(Nc2nc(-c3ccoc3)nc3ccccc23)cc1	25.2%	0.00794 µM [rising, full curve, poor fit]	0.00794 µM [rising, full curve, poor fit]	36.3%
COc1ccc(-n2c(=O)c(-c3cn(C)c4ccccc34)nc3cncnc32)cc1	28.4%	0.562 µM [rising, full curve, poor fit]	0.562 µM [rising, partial curve, poor fit]	37.2%
CSc1nc(NC2CCCC2)c([N+](=O)[O-])c(NC2CCCC2)n1	105%	11.2 µM [rising, partial curve]	12.6 µM [rising, partial curve]	139%
COc1ccc(-n2c(=O)c(CCc3ccccc3)nc3cnc(N4CCNCC4)nc32)cc1	34%	11.2 µM [rising, partial curve]	11.2 µM [rising, partial curve]	42.9%
O=c1c(-c2ccccc2)nc2cnc(Oc3ccccc3)nc2n1C1CC1	40.1%	7.94 µM [rising, partial curve]	1.41 µM [rising, full curve, poor fit]	23.9%
Cc1cccc(CNc2ccnc(-c3ccc(N(C)C)cc3)n2)c1	-51.4%	35.5 µM [falling, single point]	39.8 µM [falling, single point]	-91.6%
Cc1c(C2CCN(CCc3ccccc3)CC2)noc1-c1ccc(Cl)cc1	70%	0.794 µM [rising, full curve, poor fit]	0.794 µM [rising, full curve, poor fit]	93.4%
COc1cccc(-c2nc(NCCN3CCOCC3)c3ccccc3n2)c1	34.8%	3.98 µM [rising, full curve, poor fit]	3.98 µM [rising, full curve, poor fit]	41.7%
COc1ccc2[nH]cc(CCNc3ncncc3-c3ccccc3C)c2c1	9.6%	0.708 µM [rising, full curve]	0.708 µM [rising, full curve]	12.1%
CCCCCC[C@@H]([C@@H](C)O)n1cnc2c(N)ncnc21	52.3% and -35.8%	14.1 µM [rising, partial curve, poor fit]	14.1 µM [rising, partial curve, poor fit]	59.1% and -35.2%
Clc1ccccc1-c1nc(-n2ccnc2)c2ccccc2n1	43.2%	0.794 µM [rising, full curve]	0.708 µM [rising, full curve]	53.5%
CCC(C)C1NC(=O)C(CCNCS(=O)(=O)O)NC(=O)C(NC(=O)C(CCNCS(=O)(=O)O)NC(=O)C(NC(=O)C(CCNCS(=O)(=O)O)NC(=O)CCCCC(C)C)C(C)O)CCNC(=O)C(C(C)O)NC(=O)C(CCNCS(=O)(=O)O)NC(=O)C(CCNCS(=O)(=O)O)NC(=O)C(C(C)CC)NC1=O (centres undefined) ({Heptanoyl(6-Me)}-[ξDab(CH2SO3H)]T[ξDab(CH2SO3H)][Dab][ξDab(CH2SO3H)]II[ξDab(CH2SO3H)][ξDab(CH2SO3H)]T; lactam 4-C; configuration not given here)	52.2%	22.4 µM [rising, partial curve]	35.5 µM [rising, partial curve]	79.2%
COc1ccc(NC(=O)N2CC3(CCN(C(=O)c4cccc(F)c4)CC3)C2)cc1	16%	0.0891 µM [rising, full curve, poor fit]	0.0398 µM [rising, full curve, poor fit]	24.9%
COc1ccc(-c2nc3cncnc3n(-c3ccccc3)c2=O)cc1	40.2%	7.08 µM [rising, partial curve]	5.01 µM [rising, partial curve]	46.9%

Compound	max response [1]	AC50 [2]	AC50 [3]	max response [4]
O=C(c1cnccn1)N1CCC2(CC1)CCN(c1ncccn1)CC2	14.2%	3.98 µM [rising, single point]	3.55 µM [rising, partial curve]	25.6%
COc1ccc(CNc2ncncc2-c2ccc(C(=O)N(C)C)cc2)c(OC)c1	28.3%	0.891 µM [rising, full curve]	0.891 µM [rising, full curve]	38.2%
COc1ccc(-c2oc3ccc(C)cc3c(=O)c2O)cc1OC	95.2%	7.94 µM [rising, full curve, poor fit]	17.8 µM [rising, partial curve, poor fit]	122%
Cc1ccc(-c2nn(CC(C)(C)C)c3ncnc(N)c23)cc1	77.9%	31.6 µM [rising, partial curve, poor fit]	35.5 µM [rising, partial curve, poor fit]	97.7%
Cn1cccc1C(=O)N1CCC2(CCCN(c3ccc(-c4ccccc4)cc3)C2)CC1	23%	4.47 µM [rising, full curve, poor fit]	28.2 µM [falling, single point]	-40.3%
COC(=O)N1CCC2(CCCN(Cc3ccccc3)C2)CC1	32.7%	22.4 µM [rising, single point]	10 µM [rising, partial curve, poor fit]	44.8%
COc1cccc(-c2nc(NCc3cccs3)c3ccccc3n2)c1	29.3%	0.398 µM [rising, full curve]	0.398 µM [rising, full curve, poor fit]	34%
CC(C(=O)O)c1ccc2c(c1)[nH]c1ccc(Cl)cc12 (centres undefined)	33.4%	17.8 µM [rising, partial curve, poor fit]	25.1 µM [rising, partial curve, poor fit]	55.5%
CCCCC(CC)CN=C(N)NC(N)=NCCCCCCN=C(N)NC(N)=NCC(CC)CCCC (centres undefined)	-92.9%	31.6 µM [falling, partial curve]	25.1 µM [falling, partial curve]	-97%
CCC(C)C(N)C1=NC(C(=O)NC(CC(C)C)C(=O)NC(CCC(=O)O)C(=O)NC(C(=O)NCCCCC2NC(=O)C(CC(N)=O)NC(=O)C(CC(=O)O)NC(=O)C(Cc3cnc[nH]3)NC(=O)C(Cc3ccccc3)NC(=O)C(C(C)CC)NC(=O)C(CCCN)NC2=O)C(C)CC)CS1 (stereo not drawn) (cyclo(DNK([Ile-Glu-Leu-X1])[Orn]IFH); configuration not given here)	32.7%	20 µM [rising, partial curve]	31.6 µM [rising, single point]	43.1%
COc1ccc2c(c1OC)C(=O)O[C@H]2C1c2c(cc3c(c2OC)OCO3)CCN1C (some centres undefined)	103%	3.16 µM [rising, partial curve, poor fit]	3.16 µM [rising, partial curve, poor fit]	131%
O=c1c(-c2cccs2)nc2cncnc2n1-c1ccccc1	32.8%	14.1 µM [rising, single point]	11.2 µM [rising, partial curve]	37.9%
Cc1cnc(CNc2nc(-c3ccc4c(c3)OCO4)nc3ccccc23)cn1	16.6%	0.0355 µM [rising, full curve]	0.708 µM [rising, full curve, poor fit]	31.4%
COc1cccc(-c2cncnc2NCc2cccnc2)c1	45.2%	0.794 µM [rising, full curve]	1 µM [rising, full curve]	52.9%
CC1=C(C(=O)O)N2C(=O)[C@@H](NC(=O)C(N)C3=CCC=CC3)[C@H]2SC1 (some centres undefined)	-23.3%	0.158 µM [falling, full curve, poor fit]	0.178 µM [falling, full curve, poor fit]	-23.5%
CN1CCc2cc3c(cc2C(=O)Cc2ccc4c(c2C1)OCO4)OCO3	114%	17.8 µM [rising, partial curve]	15.8 µM [rising, partial curve]	146%
CN(C)C(=O)c1ccc(-c2cncnc2NCc2ccccc2)cc1	24.2%	4.47 µM [rising, single point]	7.08 µM [rising, single point]	30.9%
O=C(Oc1ccccc1)N1CCC2(CC1)CCN(c1cccc(-c3ccccc3)c1)CC2	-40.1%	39.8 µM [falling, single point]	39.8 µM [falling, single point]	-102%
